Test results taken from patent publication US9018177B2 (L'Oreal S.A., priority 2012, dated 2015).

Test system: human ex-vivo skin
Experiment: Ex-vivo testing of hydrotropes as penetration enhancers by CARS (coherent anti-stokes raman spectroscopy)
Conditions: addition of hydrotropes in the final formulation versus none

O=C(O)[C@H]1O[C@@H](Oc2cc3oc(-c4ccccc4)cc(=O)c3c(O)c2O)[C@H](O)[C@@H](O)[C@@H]1O [baicalin]
penetration depth: improves the penetration depth
